{"source": "PubChem BioAssay AID1240", "about": "(Sanford-Burnham Center for Chemical Genomics, 2008)", "note": "The whole screen tested about 50,000 compounds, of which about 800 (1.6%) showed an effect of 50% or more. The list shows a part of the results.", "data": [{"target": "Bcl-2-like protein 10 (Homo sapiens) (UniProt Q9HD36)", "sequence (Q9HD36 whole entry, looked up)": "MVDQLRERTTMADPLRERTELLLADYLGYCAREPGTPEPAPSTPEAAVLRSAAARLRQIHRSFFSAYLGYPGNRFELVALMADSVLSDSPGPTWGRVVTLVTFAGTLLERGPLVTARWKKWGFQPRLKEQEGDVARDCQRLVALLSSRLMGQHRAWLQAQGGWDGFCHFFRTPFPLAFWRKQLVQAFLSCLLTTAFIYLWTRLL", "assay": "TR3 peptide-Bcl-B binding displacers, biochemical primary FP assay, phenotype converters (AID 1240);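 further: 0% = Bcl-B with tracer peptide and DMSO and 100% = tracer peptide lacking Bcl-B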", "conditions": "GST-Bcl-B / FITC-TR3 peptide fluorescence polarization; stronger effect = higher value; compound at 3.75 mg/L", "units": {"displacement": "%"}, "values": [{"smiles": "COc1ccc(Cl)cc1NC(=O)C1=C(C)NC(=S)NC1c1ccc([N+](=O)[O-])cc1", "note": "(stereo not drawn)", "displacement": 1.2}, {"smiles": "CCOC(=O)c1c(NC(=O)c2ccc(OCC(C)C)cc2)sc2c1CC(C)(C)OC2", "displacement": -3.4}, {"smiles": "CCCCC(=O)Nc1ccc(C2C(=O)c3ccccc3C2=O)cc1", "displacement": -4.8}, {"smiles": "COc1ccc(N(CC(=O)Nc2ccccc2C)S(C)(=O)=O)cc1Cl", "displacement": -10.4}, {"smiles": "O=C(Nc1ccccc1)Nc1ccc(S(=O)(=O)N2CCc3ccccc32)cc1", "displacement": -5.1}, {"smiles": "O=[N+]([O-])c1ccc(Cl)c(-n2ncnc2-c2ccccc2C(F)(F)F)c1", "displacement": -12}, {"smiles": "CCCCN(CCCC)S(=O)(=O)c1ccc(I)cc1", "displacement": 3.9}, {"smiles": "Cc1cccc(NC(=O)CSc2nc(C)cc(C)n2)c1", "displacement": -2.1}, {"smiles": "Cc1ccccc1C(=O)Nc1sc2c(c1C(=O)N1CCN(C)CC1)CCCCC2", "displacement": -11.3}, {"smiles": "CCOC(=O)CNC(c1ccccc1)c1cc(Br)ccc1N", "note": "(stereo not drawn)", "displacement": 16}, {"smiles": "C=CCN1C(=O)/C(=C\\c2ccc(-c3cc(Cl)cc(Cl)c3)o2)SC1=S", "displacement": 1.7}, {"smiles": "CCC(=O)N1N=C2c3cc(OC)ccc3CCC2C1c1ccc(N(C)C)cc1", "note": "(stereo not drawn)", "displacement": 2.5}, {"smiles": "O=C(CN(Cc1ccccc1)S(=O)(=O)c1ccccc1)Nc1cccc2ccccc12", "displacement": 1.3}, {"smiles": "COC(=O)CCN1C(=O)/C(=C/c2ccc(Cl)cc2Cl)SC1=S", "displacement": -2}, {"smiles": "COc1ccccc1-n1c(C=C2C(=O)N(C)c3ccccc32)nc2ccccc2c1=O", "displacement": -10.8}, {"smiles": "O=C(Nc1nccs1)C1COc2ccccc2O1", "note": "(stereo not drawn)", "displacement": -5.8}, {"smiles": "Cc1ccc2c(c1)c1c(n2C)C(=O)CCC1", "displacement": -0.7}, {"smiles": "CCC(CC)C(=O)Nc1ccc(OC)cc1[N+](=O)[O-]", "displacement": 1.8}, {"smiles": "Clc1ccccc1C=NN1CCN(Cc2ccccc2Cl)CC1", "displacement": -2.4}, {"smiles": "O=C(Nc1ccc(-c2nc3ccccc3s2)c(O)c1)c1cc2ccccc2oc1=O", "displacement": 5.3}, {"smiles": "CCOc1ccc(-c2nc3cc(NC(=O)c4ccccc4F)ccc3o2)cc1", "displacement": -3.2}, {"smiles": "CCc1ccc(/C(C)=N/Nc2cc(-c3ccccc3)nc(C)n2)cc1", "displacement": -8.4}, {"smiles": "COc1cc([N+](=O)[O-])ccc1-c1ccc(/C=C2\\C(=O)NC(=O)N(c3ccccc3)C2=O)o1", "displacement": 132}, {"smiles": "O=C(CN1CCCCC1)Nc1nc2ccccc2s1", "displacement": -0.5}, {"smiles": "O=C(O)CCCCCN1C(=O)C(=O)/C(=C(/O)c2ccccc2)C1c1ccc(F)cc1", "note": "(stereo not drawn)", "displacement": -9.8}, {"smiles": "CCCOC(=O)C1=C(C)NC2=C(C(=O)CCC2)C1c1ccc(Cl)cc1Cl", "note": "(stereo not drawn)", "displacement": -8.1}, {"smiles": "Fc1ccc(CSc2nc3ncccc3[nH]2)cc1", "displacement": 11.6}, {"smiles": "COc1cccc(OCCCNC(C)(C)C)c1", "displacement": -0.7}, {"smiles": "CCc1ccc2oc(-c3cccc(NC(=O)c4ccc(Br)o4)c3)nc2c1", "displacement": 6.3}, {"smiles": "O=C1NCC(c2ccccc2)C1C(=O)N/N=C\\c1cc([N+](=O)[O-])cc(Br)c1O", "note": "(stereo not drawn)", "displacement": 5.6}, {"smiles": "COc1cc(/C=C2\\SC(N3CCCC3)=NC2=O)cc(OC)c1OC", "displacement": -15.6}, {"smiles": "CCCCOc1ccc(S(=O)(=O)N2CCN(C)CC2)cc1", "displacement": -1.5}, {"smiles": "O=c1c(C=NCCCO)c(-c2ccccc2)[nH]n1-c1nc2ccccc2s1", "displacement": -4.6}, {"smiles": "CCOc1cccc(N2C(=O)CC(SC(=NCc3ccc(OC)cc3)Nc3ccccc3)C2=O)c1", "note": "(stereo not drawn)", "displacement": -6.4}, {"smiles": "COc1cc(/C=C2/SC(=S)N(CC(=O)O)C2=O)cc(Cl)c1O", "displacement": -66.1}, {"smiles": "Cc1cc(OCC(=O)Nc2ccc(N3CCOCC3)cc2)cc(C)c1Cl", "displacement": 14.7}, {"smiles": "Cc1cccc(C(=O)NNC2=CC(=O)CC(C)(C)C2)c1O", "displacement": 37.5}, {"smiles": "CCN=C1SC(CC(=O)Nc2ccccc2C#N)C(=O)N1CC", "note": "(stereo not drawn)", "displacement": 1.1}, {"smiles": "CCCOc1ccc(C2Nc3cccc4cccc(c34)N2)cc1", "displacement": 10.6}, {"smiles": "Cc1ccc(Nc2nc(-c3ccc(S(=O)(=O)N4CCCCC4)cc3)cs2)cc1Cl", "displacement": -3.5}, {"smiles": "CC1(C)NC(=O)N(CC(O)CN(c2ccccc2)S(=O)(=O)c2ccccc2)C1=O", "note": "(stereo not drawn)", "displacement": -30.7}, {"smiles": "Cc1cc(/C=N/NC(=O)c2cccnc2)c(C)n1-c1ccccc1", "displacement": -22.4}, {"smiles": "COC(=O)c1cc(NC(=O)c2ccccc2OC)cc(C(=O)OC)c1", "displacement": -5.9}, {"smiles": "COc1cc(/C=C(\\C#N)c2nc(-c3ccc(-c4ccccc4)cc3)cs2)ccc1O", "displacement": 112}, {"smiles": "COc1ccccc1N1CCN(C(=O)c2ccccc2Oc2ccccc2)CC1", "displacement": 10}, {"smiles": "Brc1ccccc1OCCCn1ccnc1", "displacement": 5.8}, {"smiles": "NC(=O)c1cccc(N=Cc2c(O)ccc3ccccc23)c1", "displacement": -0.3}, {"smiles": "COc1ccc(CCNC2CC(=O)N(c3ccc(I)cc3)C2=O)cc1OC", "note": "(stereo not drawn)", "displacement": 2.3}, {"smiles": "CSc1ccc(/C=c2\\sc3nc4ccccc4n3c2=O)cc1", "displacement": 7.3}, {"smiles": "CCOC(=O)c1c(NC(=O)COc2cccc(C)c2C)sc2c1CCC2", "displacement": -5.3}, {"smiles": "Cc1ccccc1OCCNc1cc(N2CCCC2)ccc1[N+](=O)[O-]", "displacement": -4.9}, {"smiles": "Cc1cc(C)nc(SCC(=O)Nc2ccc(C)c(NC(=O)CSc3nc(C)cc(C)n3)c2)n1", "displacement": 23.5}, {"smiles": "N#C/C(=C\\c1ccc(-c2ccc([N+](=O)[O-])cc2)o1)C(=O)N1CCCCC1", "displacement": 3.2}, {"smiles": "COc1cc(CN2CCN(C(=O)c3cc(OC)c(OC)c(OC)c3)CC2)c([N+](=O)[O-])cc1OC", "displacement": 7.3}, {"smiles": "COC(=O)c1ccccc1NC(=O)/C=C/c1ccccc1Cl", "displacement": 16.8}, {"smiles": "COCCOC(=O)C1=C(C)NC2=C(C(=O)CCC2)C1c1ccccc1I", "note": "(stereo not drawn)", "displacement": 3.2}, {"smiles": "CC(=O)Nc1ccc(C2Nc3cc(C)c(C)cc3NC3=C2C(=O)CC(C)(C)C3)cc1", "note": "(stereo not drawn)", "displacement": -3.9}, {"smiles": "CC(=O)C1=C(c2ccccc2)S/C(=C2/C(=S)C(C)(C)Nc3ccccc32)S1", "displacement": 7.4}, {"smiles": "CC(=O)Nc1ccc(-n2c(C)cc(/C=C3\\C(=O)NC(=O)N(c4ccc(C)cc4)C3=O)c2C)cc1", "displacement": -10.4}, {"smiles": "Cc1ccc(NC(=O)c2cc(C(=O)O)ccc2C(=O)O)c([N+](=O)[O-])c1", "displacement": 11.2}, {"smiles": "COc1cccc(/C=C2\\SC(=S)N(c3cccc(F)c3)C2=O)c1O", "displacement": -13.5}, {"smiles": "COC(=O)c1cc(S(=O)(=O)Nc2ccc(NC(=O)c3ccccc3)cc2)ccc1Cl", "displacement": -17.9}, {"smiles": "C=C(Br)Cn1c(CCC)nc2ccccc21", "displacement": -5.8}, {"smiles": "COc1ccc(NC(=O)c2cc3nc(-c4ccc(Cl)cc4)cc(C(F)(F)F)n3n2)cc1OC", "displacement": -4.6}, {"smiles": "Cc1ccc(CNC(=O)C(=O)Nc2ccccc2F)cc1", "displacement": 3.4}, {"smiles": "O=C(O)CC(NC(=O)c1ccccc1)c1ccc(Cl)cc1", "note": "(stereo not drawn)", "displacement": 11.7}, {"smiles": "Oc1c(N=Nc2cccc(Br)c2)sc2ccccc12", "displacement": 0.9}, {"smiles": "COc1ccc(N2C(=O)C(Cl)=C(Nc3ccc(C)c(Cl)c3)C2=O)cc1", "displacement": 10.1}, {"smiles": "Cc1cc(Cl)ccc1OCCOCCN1CCC(C)CC1", "displacement": -8.9}, {"smiles": "Cc1cc(C)cc(NC(=O)C(=O)NCc2ccccn2)c1", "displacement": -3.5}, {"smiles": "C/C(=N\\NC(=O)CCc1c(C)n[nH]c1C)c1ccc(N)cc1", "displacement": -4}, {"smiles": "Fc1ccc(-c2cn3ccccc3n2)cc1", "displacement": 3.2}, {"smiles": "COC(=O)c1cc(-c2ccc(C)s2)nc2ccccc12", "displacement": 0.7}, {"smiles": "Cc1ccc(OCCOc2ccc(Cl)cc2/C=C2/SC(=S)N(C)C2=O)cc1", "displacement": 7.6}, {"smiles": "COc1ccc2[nH]c(C)c(C/C=C(/C)Cl)c(=S)c2c1", "displacement": 7.3}, {"smiles": "O=c1c(-c2ccccc2)coc2cc(OCc3ccccc3Cl)ccc12", "displacement": 20.7}, {"smiles": "Nc1ccc(Cl)c(C(=O)Nc2ccccc2C(=O)O)c1", "displacement": 18.1}, {"smiles": "CCOC(=O)C(=O)Nc1ccc(S(=O)(=O)Nc2nccc(C)n2)cc1", "displacement": 27.4}, {"smiles": "O=C(OCC1CCS(=O)(=O)C1)c1ccccc1", "note": "(stereo not drawn)", "displacement": -7.2}, {"smiles": "Cc1c(C)[n+](=O)c2cc(Cl)c(Cl)cc2n1[O-]", "displacement": -4.5}, {"smiles": "COc1cc(/C=N/n2c(SC)nnc(C(C)(C)C)c2=O)ccc1O", "displacement": 0.1}, {"smiles": "COc1ccc(-c2nn(-c3ccccc3)cc2/C=C/C(=O)c2ccccc2)cc1Br", "displacement": 9.3}, {"smiles": "COc1ccc(C(NC(=O)Cc2ccccc2)NC(=O)Cc2ccccc2)cc1", "displacement": -1.7}, {"smiles": "COc1ccccc1C1NC(=S)NC(C)=C1C(=O)Nc1cccc(Cl)c1", "note": "(stereo not drawn)", "displacement": 5.9}, {"smiles": "COC(=O)c1c(C)oc2cc(Br)c(OCC(=O)OC(C)(C)C)cc12", "displacement": 8.5}, {"smiles": "O=C1/C(=C/c2ccc(O)c(Br)c2)Sc2ccccc21", "displacement": -53.2}, {"smiles": "COC(=O)c1ccc(NC(=O)CCN2C(=O)c3cccc4cccc(c34)C2=O)cc1", "displacement": 12.3}, {"smiles": "CCC1=NN2C(=N)/C(=C/c3ccc(OC)c(OC)c3)C(=O)N=C2S1", "displacement": -1.4}, {"smiles": "COc1cc(NC(=O)Cc2cccs2)cc(OC)c1", "displacement": -6}, {"smiles": "Cc1cc(-c2ccccc2)nc(=S)[nH]1", "displacement": 16.1}, {"smiles": "CC(c1nc2ccccc2n1C)C(O)c1ccccc1", "note": "(stereo not drawn)", "displacement": -11.4}, {"smiles": "O=C1C2C(c3ccc(Cl)cc3)OC3(C(=O)c4ccccc4C3=O)C2C(=O)N1c1ccc(F)c([N+](=O)[O-])c1", "note": "(stereo not drawn)", "displacement": 5.6}, {"smiles": "COc1cccc2cc(C(=O)Nc3sc4c(c3C#N)CCCC4)c(=O)oc12", "displacement": 2.5}, {"smiles": "CCCC1=NN(C(=O)Cc2ccccc2)C(O)(C(F)(F)F)C1", "note": "(stereo not drawn)", "displacement": 14}, {"smiles": "COc1ccc(Cl)cc1N(CC(=O)N1CCOCC1)S(=O)(=O)c1ccc(C)c([N+](=O)[O-])c1", "displacement": -9.3}, {"smiles": "O=C1N=c2ccccc2=C1c1[nH]c(=S)[nH]c1O", "displacement": 5.4}, {"smiles": "Cc1ccc2nc(-c3cccs3)c(NC(=O)c3ccc(Cl)cc3)n2c1", "displacement": 10.3}, {"smiles": "COc1ccc(S(=O)(=O)N(CC(=O)N[C@@H]2CCCC[C@H]2O)c2ccc(C)cc2)cc1OC", "displacement": 0.1}, {"smiles": "CCOc1cc(C(=O)NC(c2ccccc2)c2ccccc2)cc(OCC)c1OCC", "displacement": 15.9}, {"smiles": "O=C(NCc1ccc2c(c1)OCO2)c1ccccc1F", "displacement": 14.1}, {"smiles": "O=C(c1ccc(-c2ccc(Br)cc2)o1)N1CCOCC1", "displacement": -3.1}, {"smiles": "CC(=C\\c1ccccc1)/C=C1/SC(=S)N(c2cccc(F)c2)C1=O", "displacement": 0.7}, {"smiles": "O=C(NC(=S)Nc1ccc2oc(-c3cccc4ccccc34)nc2c1)c1ccco1", "displacement": 15.1}, {"smiles": "CC1(C)CC2CC(C)(CN2C(=O)c2cnn3c2NC(c2cccs2)CC3C(F)(F)F)C1", "note": "(stereo not drawn)", "displacement": 5.1}, {"smiles": "CC(=O)C1=C(C)NC(=O)NC1c1ccc(C)cc1", "note": "(stereo not drawn)", "displacement": -0.9}, {"smiles": "O=C(/C=C/c1ccc([N+](=O)[O-])cc1)Nc1ccc2ccccc2c1", "displacement": 6.3}, {"smiles": "COc1ccc(-c2cc(C(F)(F)F)n3nc(C(=O)NCCc4ccccc4)cc3n2)cc1OC", "displacement": 44.2}, {"smiles": "Cc1ccc(NC(=O)c2cc(C(=O)Nc3ccc(C)c(C)c3)cc(N3C(=O)c4ccccc4C3=O)c2)cc1C", "displacement": 2.6}]}]}
